The supplement of paper PMC8728848
The list shows a part of the results.

Legend:
Assay in all cases: glycan array binding signal (z-score within array); higher = stronger binding
Details in all cases: glycan notation: IUPAC condensed, linker removed
[1] = biological target: Fuc(a1-3)[Gal(b1-4)]GlcNAc(b1-3)Gal(b1-3)[Fuc(a1-4)]GlcNAc
How it was run: (§1)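 Glycan array binding is given as a within-array Z-score, which can be read as non-binding when negative. The arrays, 3228 of them, came from the Consortium for Functional Glycomics database and were retained only where the protein sequence was available. Z-scores were averaged across arrays of the same protein sequence at different concentrations or buffers and across linkers.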

[2] = biological target: Fuc(a1-3)[Gal(b1-4)]GlcNAc(b1-3)Gal(b1-4)[Fuc(a1-3)]GlcNAc
How it was run: as §1

[3] = biological target: Fuc(a1-3)[Gal(b1-4)]GlcNAc(b1-3)Gal(b1-4)[Fuc(a1-3)]GlcNAc(b1-3)Gal(b1-4)[Fuc(a1-3)]GlcNAc
How it was run: as §1

[4] = biological target: Fuc(a1-3)[Gal(b1-4)]GlcNAc(b1-3)GalNAc
How it was run: as §1

[5] = biological target: Fuc(a1-3)[Gal(b1-4)]GlcNAc(b1-6)GalNAc
How it was run: as §1

[6] = biological target: Fuc(a1-3)[Gal(b1-4)]GlcNAc(b1-6)[Gal(b1-3)GlcNAc(b1-3)]Gal(b1-4)Glc
How it was run: as §1

[7] = biological target: Fuc(a1-3)[Gal(b1-4)]GlcNAc6S
How it was run: as §1

[8] = biological target: Fuc(a1-3)[Gal3S(b1-4)]Glc
How it was run: as §1

[9] = biological target: Fuc(a1-3)[Gal3S(b1-4)]GlcNAc
How it was run: as §1

[10] = biological target: Fuc(a1-3)[Gal3S(b1-4)]GlcNAc6S
How it was run: as §1

[11] = biological target: Fuc(a1-3)[GalNAc(b1-4)]GlcNAc
How it was run: as §1

[12] = biological target: Fuc(a1-3)[GalNAc(b1-4)]GlcNAc6S
How it was run: as §1

[13] = biological target: Fuc(a1-4)GlcNAc
How it was run: as §1

[14] = biological target: Fuc(b1-3)GlcNAc
How it was run: as §1

[15] = biological target: Gal(a1-2)Gal
How it was run: as §1

[16] = biological target: Gal(a1-3)Gal
How it was run: as §1

[17] = biological target: Gal(a1-3)Gal(b1-3)GlcNAc
How it was run: as §1

[18] = biological target: Gal(a1-3)Gal(b1-3)GlcNAc(b1-2)Man
How it was run: as §1

[19] = biological target: Gal(a1-3)Gal(b1-3)GlcNAc(b1-2)Man(a1-3)[Gal(a1-3)Gal(b1-3)GlcNAc(b1-2)Man(a1-6)]Man(b1-4)GlcNAc(b1-4)GlcNAc
How it was run: as §1

[20] = biological target: Gal(a1-3)Gal(b1-3)GlcNAc(b1-3)GalNAc
How it was run: as §1

[21] = biological target: Gal(a1-3)Gal(b1-3)GlcNAc(b1-6)GalNAc
How it was run: as §1

[22] = biological target: Gal(a1-3)Gal(b1-3)[Fuc(a1-4)]GlcNAc(b1-2)Man(a1-3)[Gal(a1-3)Gal(b1-3)[Fuc(a1-4)]GlcNAc(b1-2)Man(a1-6)]Man(b1-4)GlcNAc(b1-4)GlcNAc
How it was run: as §1

[23] = biological target: Gal(a1-3)Gal(b1-4)Glc
How it was run: as §1

[24] = biological target: Gal(a1-3)Gal(b1-4)GlcNAc
How it was run: as §1

[25] = biological target: Gal(a1-3)Gal(b1-4)GlcNAc(b1-2)Man
How it was run: as §1

[26] = biological target: Gal(a1-3)Gal(b1-4)GlcNAc(b1-2)Man(a1-3)[Gal(a1-3)Gal(b1-4)GlcNAc(b1-2)Man(a1-6)]Man(b1-4)GlcNAc(b1-4)GlcNAc
How it was run: as §1

[27] = biological target: Gal(a1-3)Gal(b1-4)GlcNAc(b1-3)GalNAc
How it was run: as §1

[28] = biological target: Gal(a1-3)Gal(b1-4)GlcNAc(b1-6)GalNAc
How it was run: as §1

[29] = biological target: Gal(a1-3)Gal(b1-4)[Fuc(a1-3)]GlcNAc
How it was run: as §1

[30] = biological target: Gal(a1-3)Gal(b1-4)[Fuc(a1-3)]GlcNAc(b1-2)Man(a1-3)[Gal(a1-3)Gal(b1-4)[Fuc(a1-3)]GlcNAc(b1-2)Man(a1-6)]Man(b1-4)GlcNAc(b1-4)GlcNAc
How it was run: as §1

[31] = biological target: Gal(a1-3)GalNAc
How it was run: as §1

[32] = biological target: Gal(a1-3)[Gal(a1-4)]Gal(b1-4)GlcNAc
How it was run: as §1

[33] = biological target: Gal(a1-4)Gal(b1-3)GlcNAc(b1-2)Man(a1-3)[Gal(a1-4)Gal(b1-3)GlcNAc(b1-2)Man(a1-6)]Man(b1-4)GlcNAc(b1-4)GlcNAc
How it was run: as §1

[34] = biological target: Gal(a1-4)Gal(b1-4)Glc
How it was run: as §1

[35] = biological target: Gal(a1-4)Gal(b1-4)GlcNAc
How it was run: as §1

[36] = biological target: Gal(a1-4)Gal(b1-4)GlcNAc(b1-2)Man(a1-3)[Gal(a1-4)Gal(b1-4)GlcNAc(b1-2)Man(a1-6)]Man(b1-4)GlcNAc(b1-4)GlcNAc
How it was run: as §1

[37] = biological target: Gal(a1-4)Gal(b1-4)GlcNAc(b1-3)Gal(b1-4)Glc
How it was run: as §1

[38] = biological target: Gal(a1-4)GlcNAc
How it was run: as §1

B1: AT5G01260(PC)(40) (Arabidopsis thaliana), Q9LFB0 (protein)
chain: MIGIGRTLTSSSPSKIILEDLPPGIYRYGTEIFTSVPRKTFHHIKFLRLDSAQSSRILKPVPLRSSSIKDSQVNVEDEEIEASNKTVRVRFQLRKECVFGEHFFIVGDDPVFGGLWDPETALPLNWSDGNVWTVDLDLPVGRLVEFKLLLKAQTGEILWQPGPNRALETWETNKTIRICEDWDNADLQMMIEEDFVPYTNISSIGSEDEDEVLGSVQQNSSVVAVENAGYVSDESAQNSSFSIQSEKTMEPSNGALTAREVIKEAMFTEEESPVLVPGLIPLSDLDNEQVEVINEGKAETFPEVDKKQEPKAERNKKAKVKAISLFEKSEQEAVKSVEQRQYNAVEEEQQRLETEPLGTPDVLFENDIQWGRRTLYKLLSNFRLF
- glycan array binding signal (z-score) [1]: 0.431
- glycan array binding signal (z-score) [2]: -0.975
- glycan array binding signal (z-score) [3]: 1.89
- glycan array binding signal (z-score) [4]: -0.886
- glycan array binding signal (z-score) [5]: -0.158
- glycan array binding signal (z-score) [6]: 0.008
- glycan array binding signal (z-score) [7]: -0.251
- glycan array binding signal (z-score) [8]: 0.133
- glycan array binding signal (z-score) [9]: -0.031
- glycan array binding signal (z-score) [10]: -0.043
- glycan array binding signal (z-score) [11]: 1.78
- glycan array binding signal (z-score) [12]: -0.487
- glycan array binding signal (z-score) [13]: 0.262
- glycan array binding signal (z-score) [14]: -0.73
- glycan array binding signal (z-score) [15]: -0.201
- glycan array binding signal (z-score) [16]: 0.282
- glycan array binding signal (z-score) [17]: 0.182
- glycan array binding signal (z-score) [18]: -0.515
- glycan array binding signal (z-score) [19]: 0.163
- glycan array binding signal (z-score) [20]: -0.258
- glycan array binding signal (z-score) [21]: -0.575
- glycan array binding signal (z-score) [22]: 0.054
- glycan array binding signal (z-score) [23]: -0.327
- glycan array binding signal (z-score) [24]: -0.113
- glycan array binding signal (z-score) [25]: -0.337
- glycan array binding signal (z-score) [26]: -0.127
- glycan array binding signal (z-score) [27]: -0.235
- glycan array binding signal (z-score) [28]: -0.159
- glycan array binding signal (z-score) [29]: -0.238
- glycan array binding signal (z-score) [30]: -0.425
- glycan array binding signal (z-score) [31]: 2.32
- glycan array binding signal (z-score) [32]: 9.44
- glycan array binding signal (z-score) [33]: -0.012
- glycan array binding signal (z-score) [34]: 1.85
- glycan array binding signal (z-score) [35]: 0.56
- glycan array binding signal (z-score) [36]: -0.382
- glycan array binding signal (z-score) [37]: -0.501
- glycan array binding signal (z-score) [38]: -0.448
